# Laboratory results: PubChem BioAssay AID1347073 (National Center for Advancing Translational Sciences (NCATS), 2019)
# Hit rate of the full screen: of about 45,000 compounds, about 200 (0.44%) were called active. Roughly 7% stayed inconclusive and do not appear here. Calls follow the shape of the dose curve; as a rule, active = well fitted activation curve with a large enough effect; inconclusive = small, poorly fitted or top-dose-only effect; inactive = no such curve, though single readings can be large or run the other way. Some of the results follow.
# Experiment: qHTS of TDP-43 Inhibitors: NCGC Sytravon Library Screen; also: 0% is about no effect; nearly all actives have a fitted effect of over 55% in size
# Conditions: yeast TDP-43 toxicity rescue, BacTiter-Glo growth, 24 h; series mostly up to 46.1 µM; growth rescue (activation): at the top concentration
# Procedure, shortened: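 TDP-43-expressing yeast, pregrown in raffinose, seeded at OD600 0.02 in galactose medium with compound for 24 hr at 30 deg C. Growth read by BacTiter-Glo luminescence, so rescue of toxicity appears as activation.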
row,SMILES,growth rescue (activation)
1,Cc1ccc(CNC(=O)COC(=O)c2ccc(S(=O)(=O)N(C)C)cc2)cc1,inactive: 15.9%
2,CCCC(=O)Nc1nnc(S(=O)(=O)N(C)Cc2ccco2)s1,inactive: 5.95%
3,Cc1ccc(C(=O)NCC(=O)OCc2csc(-c3ccccc3)n2)cc1,inactive: 16.4%
4,O=c1c2c([nH]n1-c1ccccc1)CCCC2,inactive: 8.66%
5,O=C(O)Cn1ccnc1,inactive: 22.6%
6,O=C(CSc1nnc2n1CCCCC2)Nc1ccc(N2CCOCC2)cc1,inactive: 30.2%
7,Cc1cc(=O)[nH]c(SCC(=O)N2CCCC2)n1,inactive: 25.1%
8,CSc1ccccc1NC(=O)COC(=O)c1ccc(O)cc1,inactive: 28.4%
9,COC(=O)C(NC(=O)c1ccco1)(Nc1ccc(Br)cn1)C(F)(F)F (configuration not stated),inactive: 16.3%
10,CN(C)CC(O)COC(c1ccc(Cl)cc1)c1ccc(Cl)cc1 (configuration not stated),inactive: 13%
11,CCC1Oc2ccc(C)cc2N(CC(=O)NCc2cccs2)C1=O (configuration not stated),inactive: 8.4%
12,COC(=O)c1cn(CC(=O)Nc2ccc(F)cc2)c2ccccc12,inactive: -3.86%
13,CC(=O)c1cccc(Nc2nc(-c3cccc([N+](=O)[O-])c3)cs2)c1,inactive: 12.2%
14,COc1cccc(C(=O)COC(=O)c2ccc(NC(C)=O)cc2)c1,inactive: 19.3%
15,CCc1nc2ccc(C(=O)Nc3ccc(OC)c(OC)c3)cn2c1N(C)CCC(C)C,inactive: 4.14%
16,CCOC(=O)C(C(C)C)C(N)Cc1ccc(F)cc1 (configuration not stated),inactive: -3.87%
17,O=C(CCC(=O)c1ccc(Oc2ccccc2)cc1)Nc1cccc(Cl)c1Cl,inactive: 12.3%
18,COCCn1c(SCC(=O)N2CC(=O)Nc3ccccc32)nc2ccccc21,inactive: -7.89%
19,CCOC(=O)C1(Cc2ccccc2)CCCN(Cc2ccccn2)C1 (configuration not stated),inactive: 18.7%
20,O=c1[nH]c2ccccc2cc1CN(c1ccccc1)S(=O)(=O)c1ccccc1,inactive: -6.68%
21,Cc1cccc(NC(=S)NCc2ccc3c(c2)OCO3)c1C,inactive: 32.9%
22,CN(C)C(=O)c1cccc(-c2cnc3c(NC=O)cc(-c4ccccc4Cl)cn23)c1,inactive: 12.8%

row,SMILES,growth rescue (activation)
1,COc1ccccc1NC(=O)Nc1nc(C(N)CCc2ccccc2)cs1 (configuration not stated),inactive: 15.2%
2,COc1ccc(S(=O)(=O)Nc2cc(S(=O)(=O)c3ccccc3)c(O)cc2C)cc1,inactive: 2.11%
3,O=C(Cc1cc(=O)[nH][nH]1)N/N=C/C=C/c1ccccc1,inactive: -6.06%
4,O=C(c1ccc([N+](=O)[O-])s1)N1CCCc2ccccc21,inactive: 8.43%
5,COc1ccc(S(=O)(=O)N2CCCC(C(=O)NC3CC3)C2)cc1Cl (configuration not stated),inactive: -3.63%
6,CCn1c(/C=C/c2ccccc2[N+](=O)[O-])nc2ccccc2c1=O,inactive: 1.76%
7,O=C(Nc1ccc(Cl)c(S(=O)(=O)N2CCOCC2)c1)c1cc(-c2ccccn2)nc2ccccc12,inactive: 13.3%
8,CCc1ccc(N2CCN(S(=O)(=O)CC34CCC(CC3=O)C4(C)C)CC2)cc1 (configuration not stated),inactive: 5.24%
9,COc1ccc(C)cc1NC(=O)C1CCN(C(=O)C2CC(=O)N(c3ccc(C)cc3)C2)CC1 (configuration not stated),inactive: 13.1%
10,O=C1CCC(c2ccccc2)=NN1Cc1c(F)cccc1Cl,inactive: 0.602%
11,COc1ccc(C(=O)Nc2ccccc2-c2ccccc2)cc1Cl,inactive: 15.6%
12,COc1ccc(NC(=S)N2CCC(N(C)CCN3CCOCC3)CC2)cc1,inactive: 3.83%
13,COc1ccc(S(=O)(=O)N2CCOCC2)cc1NC(=O)COC(=O)CC1CC2CCC1C2 (configuration not stated),inactive: 17%
14,Cc1cc(C(=O)CSc2nc(N)cc(N)n2)c(C)n1CC1CCCO1 (configuration not stated),inactive: 10.3%
15,CCn1ncc([N+](=O)[O-])c1C(=O)N1CCc2ccccc2C1,inactive: 27.6%
16,CCOc1ccc(S(=O)(=O)NCc2ccccc2)cc1C(N)=O,inactive: 15.6%
17,COc1ccc(-c2nn(-c3ccccc3)cc2CNCCN2CCOC2=O)c(F)c1,inactive: 7.63%
18,COc1ccc(NC(=O)CSCCc2ccccn2)cc1OC,inactive: -0.643%
19,CCOC(=O)N1CCN(C(=O)C2CC(=O)N(c3ccccc3)C2)CC1 (configuration not stated),inactive: 24.6%
20,COc1ccccc1NC(=O)CCn1nc(-c2ccccc2)c2ccccc2c1=O,inactive: -3.06%
21,CCOC(=O)C1(Cc2cccc(F)c2)CCN(Cc2cnn(CC)c2C)CC1,inactive: -3.27%
22,COCC(C)N1C(=O)Cc2c1nc(N)c1c(N)nc(N3CCN(c4ccccc4F)CC3)c(C#N)c21 (configuration not stated),inactive: 7.24%

row,SMILES,growth rescue (activation)
1,Cc1ccc(NC(=O)COC(=O)C2(CC(=O)NC(C)(C)C)CCCC2)cc1C,inactive: 22.6%
2,COc1ccc(OC)c(N(CC(=O)NCCSCc2ccco2)S(=O)(=O)c2ccccc2)c1,inactive: 5.59%
3,COC(=O)c1cccc(-n2c(C)cc(C=O)c2C)c1C,inactive: 28%
4,O=C(N/N=C/c1cn[nH]c1-c1ccccc1)c1ccco1,inactive: 2.29%
5,O=C(CSCC(=O)Nc1cccc([N+](=O)[O-])c1)Nc1ccccc1,inactive: 4.09%
6,COc1ccccc1C(=O)NC(=S)Nc1cccnc1Cl,inactive: 13.4%
7,O=C(CCN1CCCCC1)N=Nc1c(O)[nH]c2ccccc12,inactive: 1.52%
8,CCOC(=O)CN1C(=O)N(CC(=O)OCC)C(c2ccccc2)(c2ccccc2)C1=O,inactive: 10.2%
9,COc1cc(NC(=O)N[C@@H](CCSC)C(=O)O)cc(OC)c1,inactive: -9.15%
10,CN1C(=O)/C(=C/c2ccccc2OCc2ccccc2)NC1=S,inactive: 22.4%
11,CCCN(CCC)Cc1c(C(=O)N/N=C/C(C)=C\c2ccccc2)nnn1-c1nonc1N,inactive: -5.17%
12,NS(=O)(=O)c1ccc(CCNc2nn3c(-c4cccc(OC(F)(F)F)c4)cnc3s2)cc1,inactive: 25.6%
13,C=CCNC(=S)N/N=C/c1ccc(C(C)(C)C)cc1,inactive: 10.6%
14,COc1ccc(NC(=S)N2CCN(C(=O)c3ccco3)CC2)cc1OC,inactive: 7.73%
15,CC(C)C(NC(=O)c1ccccc1F)C(=O)NCCCn1ccnc1 (configuration not stated),inactive: 19.7%
16,CC(=O)Oc1ccc(N(C(C)=O)S(=O)(=O)c2cc([N+](=O)[O-])ccc2C)cc1,inactive: 0.449%
17,COC(=O)c1ccc2c(=O)[nH]c(CSc3nc(C)cs3)nc2c1,inactive: -7.04%
18,N#C/C(=C\c1ccc(N2CCOCC2)o1)C(=O)Nc1ccc(O)cc1,inactive: -20.4%
19,COc1cc(C2CC(=O)N(CC(=O)NCC3CCCO3)c3ccccc3S2)cc(OC)c1OC (configuration not stated),inactive: 8.34%
20,Cc1ccc(C(=O)Nc2ccccc2C(=O)NC(Cc2c[nH]c3ccccc23)C(=O)O)cc1 (configuration not stated),inactive: 14.6%
21,Cc1c(NC(=O)c2cc(-c3cccc(Cl)c3)on2)c(=O)n(-c2ccccc2)n1C,inactive: -17.3%
22,O=C(NCN1CCCCC1)c1cnccn1,inactive: -25.6%

row,SMILES,growth rescue (activation)
1,Cc1cccn2c(=O)c3cc(C#N)c(=NC(=O)c4ccccc4)n(Cc4ccco4)c3nc12,inactive: -30%
2,Cc1cnc(C(=O)OCC(=O)Nc2ccc(C)c(S(=O)(=O)N3CCOCC3)c2)cn1,inactive: 6.6%
3,CCCc1ccc(OCc2ccc(C(=O)NCc3cccnc3)o2)c(OC)c1,inactive: -5.09%
4,CN(Cc1ccc(-n2cccn2)cc1)Cc1nc(-c2cnccn2)no1,inactive: -3.73%
5,COc1ccc(N2CCOCC2)c(NC(=O)c2cc3ccccc3o2)c1,inactive: 22.6%
6,Cc1cc(C(=O)COc2ccc(C#N)cc2)c(C)n1CC1CCCO1 (configuration not stated),inactive: 18.6%
7,CC(=O)Nc1ccc(S(=O)(=O)Nc2nc3ccccc3nc2N2CCOCC2)cc1,inactive: 7.75%
8,COC(=O)C1CCN(C(=O)CSc2ccccc2)CC1,inactive: -15.4%
9,O=C(Nc1ccc(-c2nc3ccccc3[nH]2)cc1)c1c(F)c(F)c(F)c(F)c1F,inactive: 1.3%
10,OCCCNc1ncnc2c1[nH]c1ccccc12,inactive: -2.27%
11,CCOc1ccc(S(=O)(=O)N2CCN(C(=O)Cc3n[nH]c(=O)c4ccccc34)CC2)cc1,inactive: -6.72%
12,CC(=O)NC(Cc1cc(C)ccc1C)C(=O)N1CCN(C(=O)c2ccc(Br)cc2)CC1 (configuration not stated),inactive: 8.22%
13,CCOC(=O)c1sc2nc(C)cc(-c3ccccc3)c2c1N,inactive: 12.2%
14,O=C(NC1CCC(O)CC1)c1cccc2cccnc12 (configuration not stated),inactive: -4.82%
15,Cc1cccc(C)c1NC(=O)CN,inactive: 1.27%
16,CC1(C(=O)Nc2ccc(Cl)c(Cl)c2)CCN1C(=O)CCC1CCCC1 (configuration not stated),inactive: 18.9%
17,CC(=O)Nc1ccc(NC(=O)COC(=O)c2cnccn2)cc1,inactive: 3.39%
18,COc1ccccc1Nc1nnc(SCC(=O)N2CC(=O)Nc3ccccc32)s1,inactive: -18.6%
19,c1ccc(COc2ccc(CN3CCN(c4ccccn4)CC3)cc2)cc1,inactive: 15.4%
20,O=C(COC(=O)c1ccc(Br)o1)Nc1cccc(S(=O)(=O)N2CCOCC2)c1,inactive: -0.715%
21,COc1ccc(NC(=S)NCc2ccc(S(N)(=O)=O)cc2)cc1OC,inactive: -14.1%
22,COc1ccc2c(C)cc(SCC(=O)NCCN3C(=O)CSC3=O)nc2c1,inactive: 16.9%

row,SMILES,growth rescue (activation)
1,O=C1Nc2ccccc2/C1=N\N1CCOCC1,inactive: -4.93%
2,COc1ccc(OCc2nnc(SCC(=O)Nc3ccccc3F)o2)cc1,inactive: 3.03%
3,CC(=O)Nc1ccc(S(=O)(=O)NCC(=O)OCC(=O)N2CCCc3ccccc32)cc1,inactive: -18.7%
4,CCOc1ccc(S(=O)(=O)N2CCN(C(=O)c3cc(C4CC4)nn3-c3ccccc3)CC2)cc1,inactive: -1.58%
5,CN(Cc1cccnc1)Cc1cn(C)nc1-c1ccc(Oc2ccccc2)cc1,inactive: 5.21%
6,CCc1cccc(NC(=O)CNS(=O)(=O)c2ccc3nc(C)sc3c2)c1,inactive: 11.1%
7,COc1ccc(S(=O)(=O)Nc2ccccc2C(=O)N2CCOCC2)cc1F,inactive: -8.02%
8,Cc1c(C)c(C)c(S(=O)(=O)Nc2ccc3[nH]c(=O)[nH]c3c2)c(C)c1C,inactive: -0.912%
9,Nc1ccc(C(=O)OCc2nc3ccccc3[nH]2)cc1,inactive: -5.78%
10,COc1cccc(CNc2nc3cc(-c4cccc(OC)c4)sc3c(=O)n2C)c1,inactive: 25.2%
11,O=C(O)c1cc(S(=O)(=O)O)cc(Nc2c3ccccc3nc3ccccc23)c1O,inactive: -3.47%
12,O=C(CN(C(=O)c1csnn1)c1ccccc1)NCCc1ccccc1,inactive: 6.05%
13,O=C(NCCCN1CCN(Cc2ccccc2)CC1)C1CCN(S(=O)(=O)N2CCC3(CC2)OCCO3)CC1,inactive: -0.836%
14,O=C(CCn1c(=O)oc2ccccc21)Nc1ccc(N2CCOCC2)cc1,inactive: 8.82%
15,O=C(/C=C/Nc1ccc(S(=O)(=O)Nc2ncccn2)cc1)c1cccs1,inactive: 24.7%
16,CCOc1ccc(OCC(=O)Nc2nccs2)cc1,inactive: -15.6%
17,CS(=O)(=O)c1ccc(C(=O)OCC(=O)NCc2cccs2)cc1[N+](=O)[O-],inactive: 10.6%
18,CN(C)S(=O)(=O)c1ccc(C(=O)NCCN=C2NS(=O)(=O)c3ccccc32)cc1,inactive: 9.13%
19,O=C(NCC1CCCCC1)c1cccc([N+](=O)[O-])c1,inactive: 14.6%
